In paper PMC6634424:
These are yes or no findings as the source states them, for the method shown. Some entries that bind do so weakly or less than the wild type.

T1: ZED1^wt (Arabidopsis thaliana) (UniProt Q8LGB6)
T1 sequence: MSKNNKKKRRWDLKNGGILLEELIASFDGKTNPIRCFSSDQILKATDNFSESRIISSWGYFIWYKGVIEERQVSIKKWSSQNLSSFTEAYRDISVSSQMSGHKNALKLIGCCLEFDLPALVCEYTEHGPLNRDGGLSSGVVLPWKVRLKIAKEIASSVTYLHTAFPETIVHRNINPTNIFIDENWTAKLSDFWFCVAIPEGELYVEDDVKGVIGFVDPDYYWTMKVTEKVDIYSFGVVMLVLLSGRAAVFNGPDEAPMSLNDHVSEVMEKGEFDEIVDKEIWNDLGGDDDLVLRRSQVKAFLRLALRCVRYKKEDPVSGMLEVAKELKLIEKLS

T2: ZRK1/RKS1 (Arabidopsis thaliana) (UniProt Q9SVY5)
T2 sequence: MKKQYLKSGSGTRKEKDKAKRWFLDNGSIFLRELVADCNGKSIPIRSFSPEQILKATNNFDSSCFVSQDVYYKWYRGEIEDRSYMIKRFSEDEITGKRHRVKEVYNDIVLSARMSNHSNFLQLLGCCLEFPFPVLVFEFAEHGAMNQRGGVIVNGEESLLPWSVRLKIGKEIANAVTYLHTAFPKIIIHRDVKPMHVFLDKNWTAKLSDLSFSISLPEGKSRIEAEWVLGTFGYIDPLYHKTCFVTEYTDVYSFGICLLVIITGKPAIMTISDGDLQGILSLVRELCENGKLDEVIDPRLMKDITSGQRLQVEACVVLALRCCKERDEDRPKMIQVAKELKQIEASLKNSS

T3: ZED1^(N173D W193G) (Arabidopsis thaliana) (UniProt Q8LGB6)
T3 sequence: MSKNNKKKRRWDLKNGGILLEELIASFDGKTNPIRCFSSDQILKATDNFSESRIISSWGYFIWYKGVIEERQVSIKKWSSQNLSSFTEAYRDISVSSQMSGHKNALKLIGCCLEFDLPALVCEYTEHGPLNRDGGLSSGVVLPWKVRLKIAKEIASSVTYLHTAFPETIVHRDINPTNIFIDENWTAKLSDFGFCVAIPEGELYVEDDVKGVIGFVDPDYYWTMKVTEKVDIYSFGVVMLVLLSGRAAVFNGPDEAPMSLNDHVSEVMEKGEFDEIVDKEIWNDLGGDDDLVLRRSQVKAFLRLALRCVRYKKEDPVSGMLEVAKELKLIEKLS

T4: ZED1^V212T (Arabidopsis thaliana) (UniProt Q8LGB6)
T4 sequence: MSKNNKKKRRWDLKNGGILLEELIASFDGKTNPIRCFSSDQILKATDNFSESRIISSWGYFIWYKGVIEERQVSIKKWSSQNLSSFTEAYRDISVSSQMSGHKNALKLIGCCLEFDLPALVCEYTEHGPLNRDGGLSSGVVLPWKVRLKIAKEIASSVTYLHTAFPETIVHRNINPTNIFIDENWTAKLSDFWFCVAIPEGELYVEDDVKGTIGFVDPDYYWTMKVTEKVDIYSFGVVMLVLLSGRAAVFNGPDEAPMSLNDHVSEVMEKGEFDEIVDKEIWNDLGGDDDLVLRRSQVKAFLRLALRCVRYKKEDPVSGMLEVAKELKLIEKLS

T5: ZED1^‘EDG’ (Arabidopsis thaliana) (UniProt Q8LGB6)
T5 sequence: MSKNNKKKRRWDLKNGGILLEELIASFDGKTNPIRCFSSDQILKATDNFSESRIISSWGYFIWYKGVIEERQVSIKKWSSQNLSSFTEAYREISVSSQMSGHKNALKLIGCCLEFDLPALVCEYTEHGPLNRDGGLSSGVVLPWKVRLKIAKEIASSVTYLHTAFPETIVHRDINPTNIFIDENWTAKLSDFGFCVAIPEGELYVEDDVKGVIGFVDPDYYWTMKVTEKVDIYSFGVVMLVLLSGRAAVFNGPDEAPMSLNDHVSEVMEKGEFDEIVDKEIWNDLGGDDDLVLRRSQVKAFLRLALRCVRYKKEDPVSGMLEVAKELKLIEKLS

T6: ZED1^(D92E N173D) (Arabidopsis thaliana) (UniProt Q8LGB6)
T6 sequence: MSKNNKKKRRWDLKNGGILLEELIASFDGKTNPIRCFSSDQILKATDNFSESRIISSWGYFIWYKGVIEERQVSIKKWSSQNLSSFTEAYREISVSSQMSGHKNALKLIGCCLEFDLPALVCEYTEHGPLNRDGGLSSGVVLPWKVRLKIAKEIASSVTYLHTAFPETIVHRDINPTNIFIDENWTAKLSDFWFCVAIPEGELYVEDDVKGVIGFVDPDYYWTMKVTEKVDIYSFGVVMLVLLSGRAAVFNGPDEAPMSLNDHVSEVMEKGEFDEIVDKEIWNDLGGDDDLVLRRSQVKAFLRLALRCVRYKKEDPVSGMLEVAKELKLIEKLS

T7: ZED1^N173D (Arabidopsis thaliana) (UniProt Q8LGB6)
T7 sequence: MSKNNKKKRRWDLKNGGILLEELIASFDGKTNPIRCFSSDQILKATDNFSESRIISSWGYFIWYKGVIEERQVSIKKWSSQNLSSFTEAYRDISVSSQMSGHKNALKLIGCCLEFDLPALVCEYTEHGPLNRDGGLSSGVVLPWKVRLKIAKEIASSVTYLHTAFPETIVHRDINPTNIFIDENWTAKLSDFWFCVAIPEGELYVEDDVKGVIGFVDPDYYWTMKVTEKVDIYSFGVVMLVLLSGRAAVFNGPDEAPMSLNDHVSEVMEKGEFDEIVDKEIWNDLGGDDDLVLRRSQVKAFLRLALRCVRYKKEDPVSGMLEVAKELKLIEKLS

B1: PBL21 (protein, UniProt Q9LDZ5 1-381)
chain: MTCCFSCLNPRTKDIRVDIDNARCNSRYQTDSSVHGSDTTGTESISGILVNGKVNSPIPGGGARSFTFKELAAATRNFREVNLLGEGGFGRVYKGRLDSGQVVAIKQLNPDGLQGNREFIVEVLMLSLLHHPNLVTLIGYCTSGDQRLLVYEYMPMGSLEDHLFDLESNQEPLSWNTRMKIAVGAARGIEYLHCTANPPVIYRDLKSANILLDKEFSPKLSDFGLAKLGPVGDRTHVSTRVMGTYGYCAPEYAMSGKLTVKSDIYCFGVVLLELITGRKAIDLGQKQGEQNLVTWSRPYLKDQKKFGHLVDPSLRGKYPRRCLNYAIAIIAMCLNEEAHYRPFIGDIVVALEYLAAQSRSHEARNVSSPSPEISRTPRRDL
B2: PBL2 (protein, UniProt O49839 1-426)
chain: MGNCLDSSAKVDNSNHSPHANSASSGSKVSSKTSRSTGPSGLSTTSYSTDSSFGPLPTLRTEGEILSSPNLKAFTFNELKNATKNFRQDNLLGEGGFGCVFKGWIDQTSLTASRPGSGIVVAVKQLKPEGFQGHKEWLTEVNYLGQLSHPNLVLLVGYCAEGENRLLVYEFMPKGSLENHLFRRGAQPLTWAIRMKVAVGAAKGLTFLHEAKSQVIYRDFKAANILLDADFNAKLSDFGLAKAGPTGDNTHVSTKVIGTHGYAAPEYVATGRLTAKSDVYSFGVVLLELISGRRAMDNSNGGNEYSLVDWATPYLGDKRKLFRIMDTKLGGQYPQKGAFTAANLALQCLNPDAKLRPKMSEVLVTLEQLESVAKPGTKHTQMESPRFHHSSVMQKSPVRYSHDRPLLHMTPGASPLPSYTQSPRVR
B3: PBL3 (protein, UniProt O49840 1-426)
chain: MGNCLDSSAKVDSSSHSPHANSASLSSRVSSKTSRSTVPSSLSINSYSSVESLPTPRTEGEILSSPNLKAFTFNELKNATRNFRPDSLLGEGGFGYVFKGWIDGTTLTASKPGSGIVVAVKKLKTEGYQGHKEWLTEVNYLGQLSHPNLVKLVGYCVEGENRLLVYEFMPKGSLENHLFRRGAQPLTWAIRMKVAIGAAKGLTFLHDAKSQVIYRDFKAANILLDAEFNSKLSDFGLAKAGPTGDKTHVSTQVMGTHGYAAPEYVATGRLTAKSDVYSFGVVLLELLSGRRAVDKSKVGMEQSLVDWATPYLGDKRKLFRIMDTRLGGQYPQKGAYTAASLALQCLNPDAKLRPKMSEVLAKLDQLESTKPGTGVGNRQAQIDSPRGSNGSIVQKSPRRYSYDRPLLHITPGASPLPTHNHSPRVR
B4: PBS1 (protein, UniProt Q9FE20 1-456)
chain: MGCFSCFDSSDDEKLNPVDESNHGQKKQSQPTVSNNISGLPSGGEKLSSKTNGGSKRELLLPRDGLGQIAAHTFAFRELAAATMNFHPDTFLGEGGFGRVYKGRLDSTGQVVAVKQLDRNGLQGNREFLVEVLMLSLLHHPNLVNLIGYCADGDQRLLVYEFMPLGSLEDHLHDLPPDKEALDWNMRMKIAAGAAKGLEFLHDKANPPVIYRDFKSSNILLDEGFHPKLSDFGLAKLGPTGDKSHVSTRVMGTYGYCAPEYAMTGQLTVKSDVYSFGVVFLELITGRKAIDSEMPHGEQNLVAWARPLFNDRRKFIKLADPRLKGRFPTRALYQALAVASMCIQEQAATRPLIADVVTALSYLANQAYDPSKDDSRRNRDERGARLITRNDDGGGSGSKFDLEGSEKEDSPRETARILNRDINRERAVAEAKMWGESLREKRRQSEQGTSESNSTG
B5: PBL15^S260I (protein, UniProt Q9SY91 1-424)
chain: MRDSSTTASTKSSPLWKPFASNCCSVDDQTVFGNLSRCRPSRSEFSKNHLGPLPSFRRLSFADLSRSSSARINEDLAQTLGADLVDFQMCELKMITQSFSGNYLLGEGGFGKVYKGYVDDYLRQSLKAQPVAVKLLDIEGLQGHREWLSEVIFLGQLKHPNLVKLIGYCCEEEERVLIYEFMPRGSLENHLFRRISLSLPWATRLKIAVAAAKGLAFLHDLESPIIYRDFKTSNILLDSDFTAKLSDFGLAKMGPEGSKIHVTTRVMGTYGYAAPEYVSTGHLTTKSDVYSYGVVLLELLTGRRATEKSRPKNQQNIIDWSKPYLTSSRRLRCVMDPRLAGQYSVKAAKDTALLALQCVSPNPKDRPKMLAVVEALESLIHYKDMAVSSGHWPLSPKSQGGKVSPKVRGDHRSGRKSAPGSLRS

What was measured:
[1] = target: T1, ZED1^wt (Arabidopsis thaliana); experiment: two-hybrid; Y3H: LexA-ZED1 bait, 46 PBL preys, HopZ1b expressed from the ho locus
[2] = target: T2, ZRK1/RKS1 (Arabidopsis thaliana); experiment: two-hybrid; Y2H: LexA-ZRK1/RKS1 bait, 46 PBL preys, no AvrAC; X-Gal reporter plates, 30°C
[3] = target: T3, ZED1^(N173D W193G) (Arabidopsis thaliana); experiment: two-hybrid; Y2H: LexA-ZED1 (wt or mutant) bait, PBL (wt or mutant) preys, no effector; X-Gal reporter plates, 30°C
[4] = target: T4, ZED1^V212T (Arabidopsis thaliana); experiment: as above
[5] = target: T5, ZED1^‘EDG’ (Arabidopsis thaliana); experiment: as above
[6] = target: T1, ZED1^wt (Arabidopsis thaliana); experiment: two-hybrid; Y3H: LexA-ZED1 (wt or mutant) bait, PBL (wt or mutant) preys, HopZ1a^wt expressed from the yeast ho locus
[7] = target: T2, ZRK1/RKS1 (Arabidopsis thaliana); experiment: two-hybrid; Y3H: LexA-ZRK1/RKS1 bait, 46 PBL preys, AvrAC expressed from the yeast ho locus
[8] = target: T6, ZED1^(D92E N173D) (Arabidopsis thaliana); experiment: two-hybrid; Y2H: LexA-ZED1 (wt or mutant) bait, PBL (wt or mutant) preys, no effector; X-Gal reporter plates, 30°C
[9] = target: T7, ZED1^N173D (Arabidopsis thaliana); experiment: as above
[10] = target: HopZ1a^wt (Pseudomonas syringae) (UniProt Q6VE93); experiment: two-hybrid; Y2H: LexA-HopZ1a (wt or C216A) bait, array of 46 NLS-B42-HA-PBL preys, diploid yeast, X-Gal reporter plates, 30°C
[11] = target: T1, ZED1^wt (Arabidopsis thaliana); experiment: two-hybrid; Y2H: LexA-ZED1 (wt or mutant) bait, PBL (wt or mutant) preys, no effector; X-Gal reporter plates, 30°C

Row | Binder | binding [2] | binding [3] | binding [5] | binding [6] | binding [7] | other results
1 | B1 | binds | binds | binds | binds | – | binding [1]: binds; binding [4]: binds
2 | B2 | binds | – | – | – | binds | –
3 | B3 | – | – | – | – | binds | –
4 | B4 | – | no binding | no binding | binds | – | binding [8]: binds; binding [9]: binds; binding [10]: no binding
5 | B5 | – | – | – | – | – | binding [11]: binds
